These results are taken from the BET-seq Pho4 binding data (Le et al. 2018).

The list shows a part of the results. The energies were worked out here from pooled read counts, against the library average; single values are noisy.

In the assay the target is T1, Pho4 (S. cerevisiae) (UniProt P07270).
T1 sequence: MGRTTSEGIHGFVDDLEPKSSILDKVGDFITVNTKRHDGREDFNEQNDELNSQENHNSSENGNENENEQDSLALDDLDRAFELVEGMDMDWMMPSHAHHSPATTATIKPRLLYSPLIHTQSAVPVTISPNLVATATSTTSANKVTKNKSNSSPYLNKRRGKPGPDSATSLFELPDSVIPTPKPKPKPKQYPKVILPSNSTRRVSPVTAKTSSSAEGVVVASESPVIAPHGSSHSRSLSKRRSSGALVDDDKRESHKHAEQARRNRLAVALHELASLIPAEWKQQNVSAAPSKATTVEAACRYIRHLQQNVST
Put plainly: relative binding free energy (BET-seq); higher = weaker binding. The conditions noted are these: reference: library average.
Turning to TTTACCACGTGTATGG, the “relative binding free energy” value was -0.13 kcal/mol. Turning to CTTTTCACGTGTTATG, the “relative binding free energy” value was found to be 0.29 kcal/mol. With TTAGTCACGTGGCGAA the figure was 0.05 kcal/mol; with TGGGTCACGTGCCAAG, 0.16 kcal/mol; with GTGTGCACGTGTCAGA, 0.01 kcal/mol. With AGTTACACGTGGCGAT the figure was 0.01 kcal/mol. In the case of AGGGTCACGTGAGAGA it was 0.2 kcal/mol; in that of ATAGTCACGTGTTATA, 0.02 kcal/mol. For GTGGTCACGTGACTTG, the “relative binding free energy” value is 0.4 kcal/mol. With ATTTTCACGTGTCATA the figure was 0.26 kcal/mol; with TAGCTCACGTGGGGCG, 0.01 kcal/mol. With AGACGCACGTGGATGT the figure was -0.08 kcal/mol. For the sequence CAGGTCACGTGGATGG, the “relative binding free energy” value stood at 0.14 kcal/mol. As to GGGGGCACGTGAGGTC, the “relative binding free energy” value is 0.12 kcal/mol. In the case of GGTATCACGTGGGAGC it was 0.12 kcal/mol. As for TTGCACACGTGTTAGT, the “relative binding free energy” value is 0.01 kcal/mol. In the case of TTTGTCACGTGTCCGG it was 0.13 kcal/mol. With CTGCTCACGTGTTTGT the figure was 0.19 kcal/mol. In the case of TGGGCCACGTGAGGAT it was 0.15 kcal/mol. As for ATGTACACGTGTATTA, the “relative binding free energy” value amounted to 0.07 kcal/mol. With TTATACACGTGAATGG the figure was 0.2 kcal/mol; with TTTTTCACGTGGTGAC, 0.26 kcal/mol; with TTTATCACGTGATATA, 0.14 kcal/mol. With TACGACACGTGGTTGT the figure was -0.04 kcal/mol; with TTGAGCACGTGGCGCG, -0.25 kcal/mol; with TATTGCACGTGTCTAT, -0.02 kcal/mol. With ATTGACACGTGGAGTC the figure was 0.08 kcal/mol; with GGCGTCACGTGGAGGG, 0.07 kcal/mol.

Turning to AGATACACGTGTTGGG, the “relative binding free energy” value was -0.03 kcal/mol.

Take AGGTTCACGTGGAAAT: the “relative binding free energy” value amounted to 0.31 kcal/mol. With GTCGTCACGTGTTGTG the figure was 0.24 kcal/mol; with TCGATCACGTGTATGT, 0.28 kcal/mol. With TGCAACACGTGTTTGG the figure was -0.01 kcal/mol; with GAGGGCACGTGGCTGG, -0.23 kcal/mol; with GTGTTCACGTGGCGCA, 0.36 kcal/mol.

With AAAGGCACGTGTGTTC, the “relative binding free energy” value amounted to 0.06 kcal/mol. With TAGGTCACGTGTTTGC the figure was 0.02 kcal/mol; with CTTTACACGTGTTGTA, 0 kcal/mol; with GTAATCACGTGAAGTT, 0.25 kcal/mol.

With AGGATCACGTGTGAGT, the “relative binding free energy” value was 0.23 kcal/mol. In the case of TATTTCACGTGTGGCG it was 0.27 kcal/mol. In the case of AAAGGCACGTGGTAAA it was 0.03 kcal/mol; in that of TACGTCACGTGTTAGG, 0.1 kcal/mol.

AGTTGCACGTGTTTTC: the “relative binding free energy” value is 0.03 kcal/mol. With CGGTGCACGTGGTCAG the figure was -0.08 kcal/mol. Regarding GTTGTCACGTGTTTTG, the “relative binding free energy” value was determined as 0.25 kcal/mol. In the case of GGCTTCACGTGGTTTT it was 0.3 kcal/mol; in that of TCGATCACGTGGGGTG, -0.1 kcal/mol. With ATGTACACGTGGTTTA the figure was -0.01 kcal/mol; with TATTGCACGTGCACTG, 0 kcal/mol. Take GGTTACACGTGGGTTA: the “relative binding free energy” value turned out to be 0.19 kcal/mol.

For the sequence TTGATCACGTGTACTT, the “relative binding free energy” value was 0.08 kcal/mol. In the case of AGGCTCACGTGTGAGA it was 0.28 kcal/mol; in that of GTTCGCACGTGTTGGT, -0.03 kcal/mol; in that of GTGTACACGTGTTATC, 0.17 kcal/mol.

On to GGAGGCACGTGGTCGG, for which the “relative binding free energy” value was -0.19 kcal/mol. In the case of AGGAGCACGTGCAGTG it was -0.2 kcal/mol. ATTAACACGTGTGAGC: the “relative binding free energy” value was found to be 0.2 kcal/mol. With GTTGGCACGTGGCAGA the figure was -0.13 kcal/mol; with TAATGCACGTGGAGAT, 0.03 kcal/mol.

Turning to TTGGGCACGTGTTGAG, the “relative binding free energy” value was -0.11 kcal/mol. In the case of GGGGTCACGTGGTAAA it was 0.2 kcal/mol; in that of AGGGGCACGTGCCCGG, -0.19 kcal/mol. In the case of TTTAGCACGTGCAATA it was 0.02 kcal/mol. With ATGACCACGTGGTGAG the figure was -0.02 kcal/mol; with AATGACACGTGAGGTG, 0.27 kcal/mol. On to ACAGTCACGTGGTATG, for which the “relative binding free energy” value was -0.13 kcal/mol. With ATGTGCACGTGCATTG the figure was 0 kcal/mol; with GAAGGCACGTGGCGGC, -0.08 kcal/mol.

For GTCGACACGTGTGGGT, the “relative binding free energy” value was found to be 0.21 kcal/mol.

In the case of AGGGGCACGTGATTGC, the “relative binding free energy” value was found to be 0.1 kcal/mol. In the case of GATATCACGTGCGTTG it was 0.2 kcal/mol; in that of TGAGTCACGTGTGGTT, 0.22 kcal/mol. With GGCATCACGTGTGGAT the figure was 0.38 kcal/mol; with TTAGACACGTGCGGTA, -0.11 kcal/mol. With TGAAGCACGTGGGTAC the figure was -0.24 kcal/mol; with TAATACACGTGTGTGT, 0 kcal/mol; with AGAGGCACGTGTTAAG, -0.03 kcal/mol. As to TGATTCACGTGCGGAG, the “relative binding free energy” value was 0.18 kcal/mol. In the case of TTATTCACGTGAAAAT it was 0.25 kcal/mol; in that of GTGAGCACGTGGTTCA, -0.08 kcal/mol. With TTTAACACGTGTTGAG the figure was -0.04 kcal/mol; with TAATCCACGTGGAGGT, 0.06 kcal/mol; with CGGGTCACGTGGGTGG, -0.04 kcal/mol.

As to TGTCTCACGTGCAGGA, the “relative binding free energy” value amounted to 0.42 kcal/mol. With TTTTGCACGTGGACAT the figure was -0.13 kcal/mol; with CTAGTCACGTGGTTAA, 0.03 kcal/mol; with ACCGGCACGTGGTTGG, -0.17 kcal/mol. In the case of AGTGACACGTGCTTGT it was -0.04 kcal/mol; in that of GATATCACGTGGTCAG, 0.25 kcal/mol.

On to CGGGTCACGTGTACTG, for which the “relative binding free energy” value stood at 0.14 kcal/mol.

As for TTAGACACGTGTGTGC, the “relative binding free energy” value was -0.11 kcal/mol.

In the case of AATGGCACGTGGGAAG, the “relative binding free energy” value was -0.21 kcal/mol. In the case of GTAGTCACGTGACTGA it was 0.34 kcal/mol; in that of TGTCGCACGTGGAAAT, 0.06 kcal/mol. As to TAGTTCACGTGTGATA, the “relative binding free energy” value worked out at 0.14 kcal/mol. In the case of CAGGACACGTGTCGGG it was 0.15 kcal/mol; in that of CGTGTCACGTGATCTG, 0.07 kcal/mol; in that of CTTAGCACGTGTTAGT, -0.03 kcal/mol.

As for GGTTGCACGTGATTTA, the “relative binding free energy” value came to 0.18 kcal/mol. In the case of TGCGGCACGTGGTGGT it was -0.11 kcal/mol; in that of AATTCCACGTGATGGG, 0.3 kcal/mol; in that of CTTAACACGTGGAGTG, -0.07 kcal/mol. In the case of TCATTCACGTGTAGGA it was 0.29 kcal/mol; in that of AGTGTCACGTGGACAT, 0.12 kcal/mol; in that of GGGTTCACGTGATGTT, 0.36 kcal/mol. For the sequence ACGTGCACGTGTCGGG, the “relative binding free energy” value was -0.13 kcal/mol.

With TGTAACACGTGTTGGA, the “relative binding free energy” value was determined as 0.1 kcal/mol. For the sequence AGGCGCACGTGATTAT, the “relative binding free energy” value is 0.19 kcal/mol. In the case of CGTTACACGTGTACGG it was 0.11 kcal/mol. In the case of GGTATCACGTGTCGTG, the “relative binding free energy” value stood at 0.21 kcal/mol. In the case of GATGGCACGTGGGCAT it was -0.27 kcal/mol.

In the case of CTTGGCACGTGCGTTT, the “relative binding free energy” value is -0.13 kcal/mol. In the case of ATAGACACGTGGATTG it was 0.05 kcal/mol.

Regarding AGTACCACGTGGTTTT, the “relative binding free energy” value was -0.09 kcal/mol.

For GGACGCACGTGGTAGG, the “relative binding free energy” value is -0.14 kcal/mol. In the case of TAATTCACGTGGGGTA it was 0.02 kcal/mol; in that of TTTTGCACGTGAATGT, 0.22 kcal/mol. For the sequence CGGTACACGTGTGGCG, the “relative binding free energy” value was 0.15 kcal/mol.

Consider GATATCACGTGTGGAT, for which the “relative binding free energy” value was 0.16 kcal/mol.

With AATAACACGTGGGTTT, the “relative binding free energy” value was -0.19 kcal/mol. In the case of TGTGACACGTGGTACT it was -0.13 kcal/mol.

As for CGGAGCACGTGAGGTG, the “relative binding free energy” value was 0.17 kcal/mol. With ATTGTCACGTGGCGGA the figure was -0.14 kcal/mol; with TTCAGCACGTGGAGTT, 0.02 kcal/mol.

As to TGCTTCACGTGTGGTT, the “relative binding free energy” value worked out at 0.35 kcal/mol. With GTGTGCACGTGGAAAA the figure was 0.08 kcal/mol; with CTGGACACGTGGTTGC, 0.01 kcal/mol; with TCATGCACGTGGGGGG, -0.08 kcal/mol. In the case of GGTAGCACGTGTCAGT it was -0.08 kcal/mol; in that of ATAGGCACGTGTTGGG, -0.07 kcal/mol; in that of GGGGTCACGTGAAGAT, 0.4 kcal/mol.

On to GCTTACACGTGTTGTT, for which the “relative binding free energy” value worked out at 0.22 kcal/mol. In the case of TAAGGCACGTGTTTGG it was -0.08 kcal/mol; in that of TTAGCCACGTGTTATG, -0.06 kcal/mol; in that of GAAAACACGTGGGGGG, -0.03 kcal/mol. With TAGATCACGTGGGAGA the figure was 0.13 kcal/mol.

Take TATGCCACGTGCATGG: the “relative binding free energy” value was -0.13 kcal/mol. With GAAAACACGTGTGGGA the figure was 0.09 kcal/mol; with ATTGTCACGTGGCTTA, -0.03 kcal/mol; with TTTGTCACGTGGACGA, 0.21 kcal/mol. With TCTGGCACGTGATAGG the figure was 0.07 kcal/mol; with TGCTTCACGTGGTGCG, 0.3 kcal/mol; with ATTTACACGTGGGTAT, 0 kcal/mol. In the case of ATTAACACGTGTTATA it was 0.04 kcal/mol; in that of TGTATCACGTGTCTAG, 0.08 kcal/mol.
